The list shows a part of the results.
B1: PhoQ; a variant is named by its letters at X, in order, P23837 (parent)
chain: MKKLLRLFFPLSLRVRFLLATAAVVLVLSLAYGMVALIGYSVSFDKTTFRLLRGESNLFYTLAKWENNKLHVELPENIDKQSPTMTLIYDENGQLLWAQRDVPWLMKMIQPDWLKSNGFHEIEADVNDTSLLLSGDHSIQQQLQEVREDDDDAEMTHSVAVNVYPATSRMPKLTIVVVDTIPVELKSSYMVWSWFIYVLSANLLLVIPLLWVAAWWSLRPIEALAKEVRELEEHNRELLNPATTRELTSLVRNLNRLLKSERERYDKYRTTLTDLTHSLKTPLXXLQXXLRSLRSEKMSVSDAEPVMLEQISRISQQIGYYLHRASMRGGTLLSRELHPVAPLLDNLTSALNKVYQRKGVNISLDISPEISFVGEQNDFVEVMGNVLDNACKYCLEFVEISARQTDEHLYIVVEDDGPGIPLSKREVIFDRGQRVDTLRPGQGVGLAVAREITEQYEGKIVAGESMLGGARMEVIFGRQHSAPKDE

Variants of: B1
Assay: enrichment ratio after two sorts for PhoP signalling (ratio (wild type AVST 3.29)); higher = more functional
Settings: with PhoP (E. coli)
Work on VEHK yielded an enrichment ratio of at most 0.25. In the case of EDYI, the enrichment ratio is reported as at most 0.25. For HSYS, the enrichment ratio was at most 0.25. FYIC showed an enrichment ratio of at most 0.25. With YEGD the enrichment ratio was at most 0.25. Variant TLRH has an enrichment ratio of at most 0.25. EADV was tested, and the enrichment ratio was at most 0.25. Work on DYRN yielded an enrichment ratio of at most 0.25. With EVYW the enrichment ratio was at most 0.25. FGQN showed an enrichment ratio of at most 0.25. TWVP gave an enrichment ratio of at most 0.25. Work on VMQG yielded an enrichment ratio of at most 0.25. NLKD showed an enrichment ratio of at most 0.25. Work on KSIG yielded an enrichment ratio of at most 0.25. In the case of MAGV, the enrichment ratio is reported as 1.97. RFIH was tested, and the enrichment ratio was at most 0.25. For LHIT, the enrichment ratio was at most 0.25. For YMAL, the enrichment ratio was at most 0.25. In the case of SQCI, the enrichment ratio is reported as 15.6. KTIG showed an enrichment ratio of at most 0.25. For RYIA, the enrichment ratio was at most 0.25. Work on KLHW yielded an enrichment ratio of at most 0.25. With NYPA the enrichment ratio was at most 0.25. In the case of RAHE, the enrichment ratio is reported as at most 0.25. With NVKH the enrichment ratio was at most 0.25. LTDC was tested, and the enrichment ratio was at most 0.25. PLKE was tested, and the enrichment ratio was at most 0.25. In the case of GECN, the enrichment ratio is reported as at most 0.25. Work on SQMM yielded an enrichment ratio of 3.97. DFGY gave an enrichment ratio of at most 0.25. With PIYK the enrichment ratio was at most 0.25. TRCT was tested, and the enrichment ratio was 18.2. TYFM was tested, and the enrichment ratio was at most 0.25. Variant KSRV has an enrichment ratio of at most 0.25. FYVV showed an enrichment ratio of at most 0.25. With PQNA the enrichment ratio was at most 0.25. Work on PTNP yielded an enrichment ratio of at most 0.25. VECH showed an enrichment ratio of 24.1. RQTP gave an enrichment ratio of at most 0.25. PRFQ was tested, and the enrichment ratio was at most 0.25. For HCLA, the enrichment ratio was at most 0.25. WRGP gave an enrichment ratio of at most 0.25. For FYHR, the enrichment ratio was at most 0.25. In the case of IKTN, the enrichment ratio is reported as at most 0.25. YYGI showed an enrichment ratio of at most 0.25. Work on EDQN yielded an enrichment ratio of at most 0.25. HPPR gave an enrichment ratio of at most 0.25. NTDL was tested, and the enrichment ratio was at most 0.25. IFPK gave an enrichment ratio of at most 0.25. With TSQV the enrichment ratio was 12.2. For QLHH, the enrichment ratio was at most 0.25. Variant MSGT has an enrichment ratio of 2.82. QTTR was tested, and the enrichment ratio was at most 0.25. Variant PAAW has an enrichment ratio of at most 0.25. GLCI showed an enrichment ratio of 9.01. INGW was tested, and the enrichment ratio was at most 0.25. Variant ALVP has an enrichment ratio of at most 0.25. DEKI showed an enrichment ratio of at most 0.25. For RIVQ, the enrichment ratio was at most 0.25. In the case of LTKA, the enrichment ratio is reported as at most 0.25. Variant GCTL has an enrichment ratio of 4.94. Work on ESIF yielded an enrichment ratio of at most 0.25. For LQDA, the enrichment ratio was at most 0.25. For MAYV, the enrichment ratio was 15.4. In the case of VNIN, the enrichment ratio is reported as at most 0.25. For KMPM, the enrichment ratio was at most 0.25. Work on STIL yielded an enrichment ratio of 9.06. EEQH was tested, and the enrichment ratio was at most 0.25. With GIQC the enrichment ratio was at most 0.25. Work on INRM yielded an enrichment ratio of at most 0.25. In the case of YEMA, the enrichment ratio is reported as 0.594. For RLWE, the enrichment ratio was at most 0.25. Variant EQMW has an enrichment ratio of at most 0.25. With QCKF the enrichment ratio was at most 0.25. For VWIY, the enrichment ratio was at most 0.25. Work on PLAN yielded an enrichment ratio of at most 0.25. VREF showed an enrichment ratio of at most 0.25. With SITP the enrichment ratio was at most 0.25. DPQF was tested, and the enrichment ratio was at most 0.25. LPYC was tested, and the enrichment ratio was at most 0.25. Variant EAAV has an enrichment ratio of at most 0.25. In the case of WFAG, the enrichment ratio is reported as at most 0.25. LHDL was tested, and the enrichment ratio was at most 0.25. FDCK was tested, and the enrichment ratio was at most 0.25. YPDK showed an enrichment ratio of at most 0.25. For RPKS, the enrichment ratio was at most 0.25. In the case of GDKY, the enrichment ratio is reported as at most 0.25. VGAK was tested, and the enrichment ratio was at most 0.25. MSNR showed an enrichment ratio of at most 0.25. With CWML the enrichment ratio was at most 0.25. Variant HMTM has an enrichment ratio of 11.7. PHYG showed an enrichment ratio of at most 0.25. RFKY showed an enrichment ratio of at most 0.25. Variant KGNV has an enrichment ratio of at most 0.25. For DDVI, the enrichment ratio was at most 0.25. AQFH showed an enrichment ratio of at most 0.25. In the case of VRVP, the enrichment ratio is reported as at most 0.25. In the case of QHDW, the enrichment ratio is reported as at most 0.25. For HTAV, the enrichment ratio was at most 0.25. ATME was tested, and the enrichment ratio was 7.5. SGFI was tested, and the enrichment ratio was 4.52. With QCFD the enrichment ratio was at most 0.25. IDIA was tested, and the enrichment ratio was at most 0.25. For DYYG, the enrichment ratio was at most 0.25. IPNL showed an enrichment ratio of at most 0.25. QQLK showed an enrichment ratio of at most 0.25. In the case of NKPK, the enrichment ratio is reported as at most 0.25. LCGL was tested, and the enrichment ratio was at most 0.25. For EDVS, the enrichment ratio was at most 0.25. For EFCA, the enrichment ratio was at most 0.25. Work on MDSN yielded an enrichment ratio of at most 0.25. With SANQ the enrichment ratio was at most 0.25. YQPW showed an enrichment ratio of at most 0.25. Work on KCND yielded an enrichment ratio of at most 0.25. Work on ACSH yielded an enrichment ratio of 6.81. Variant LYKE has an enrichment ratio of at most 0.25. KTNH gave an enrichment ratio of at most 0.25. Variant LWGW has an enrichment ratio of at most 0.25. In the case of FNFP, the enrichment ratio is reported as at most 0.25. ALGL was tested, and the enrichment ratio was 8.36. EPIW gave an enrichment ratio of at most 0.25. VQST showed an enrichment ratio of at most 0.25. Variant DMWN has an enrichment ratio of at most 0.25. PRGH gave an enrichment ratio of at most 0.25. VNGF showed an enrichment ratio of at most 0.25. KPQL was tested, and the enrichment ratio was at most 0.25. In the case of ARMM, the enrichment ratio is reported as 5.29. Work on GNAR yielded an enrichment ratio of at most 0.25. With WTSW the enrichment ratio was at most 0.25. In the case of LMEE, the enrichment ratio is reported as at most 0.25. With MVHR the enrichment ratio was at most 0.25. HPRS showed an enrichment ratio of at most 0.25. PYDR showed an enrichment ratio of at most 0.25. DSVY showed an enrichment ratio of at most 0.25. MIYR showed an enrichment ratio of 2.6. NDDS gave an enrichment ratio of at most 0.25. VHLR was tested, and the enrichment ratio was at most 0.25. Variant WNVS has an enrichment ratio of at most 0.25. With MTPG the enrichment ratio was at most 0.25. SGSF was tested, and the enrichment ratio was 1.84. In the case of SSQD, the enrichment ratio is reported as at most 0.25. In the case of QNIQ, the enrichment ratio is reported as at most 0.25. FEFE was tested, and the enrichment ratio was at most 0.25. For SEQN, the enrichment ratio was 21.6. With KSDW the enrichment ratio was at most 0.25. In the case of YEHH, the enrichment ratio is reported as at most 0.25. NKQA gave an enrichment ratio of at most 0.25. With SYLI the enrichment ratio was 0.306. Variant FWNP has an enrichment ratio of at most 0.25. Variant KQAV has an enrichment ratio of at most 0.25. Variant TGLE has an enrichment ratio of 9.53. GWCH was tested, and the enrichment ratio was at most 0.25. With LYFS the enrichment ratio was at most 0.25.

— a collection of fitness landscapes (doi:10.1126/science.1257360)
